From article PMC4923902 (Scientific Reports, 2016)

B1: arrestin-1 with truncated C-tail ([…], Δ[…]) (domain or fragment)
chain: not shown
notes: bovine arrestin-1 (SAG), […]; also called C-tail truncation
B2: arrestin-1 F375 alanine mutant, mCherry fusion (natural protein)
chain: not shown
notes: bovine arrestin-1 (SAG); single mutant of the alanine scan; also called alanine substitution at site 375; source: E. coli BL21(DE3), cleared cell lysate
B3: arrestin-1 F377 alanine mutant, mCherry fusion (natural protein)
chain: not shown
notes: bovine arrestin-1 (SAG); single mutant of the alanine scan; also called alanine substitution at site 377; source: E. coli BL21(DE3), cleared cell lysate

molecular target: T1, phosphorylated opsin (bovine, UniProt P02699 1-348, phosphorylated on the C-terminus by endogenous GRK1 (sites not given); no retinal (apo-protein)); experiment: pull-down; centrifugal pull-down in 96-well plates; cleared E. coli lysate with arrestin-mCherry (est. 0.1-0.6 uM) mixed with ROS membranes with Ops-P (1.85 uM), 37 °C 2 min, pelleted at 4 °C; NaCl titrated 4.4-1504 mM as inhibitor; mCherry fluorescence of the washed pellet; IC50 of NaCl from a four-parameter fit; HEPES pH 7.0, hydroxylamine in the lysis buffer; settings: partners not purified
T1 construct: bovine opsin (apo-protein of rhodopsin), endogenous in ROS membranes; in isolated, washed ROS disc membranes, not on whole cells; also called Ops-P; OpsP

| fold increase in IC50 of NaCl against wild type | Binder |
| --- | --- |
| 4 fold | B1 |
| ~2.9 fold | B2 |
| ~2.9 fold | B3 |

molecular target: T2, phosphorylated Metarhodopsin II (bovine, UniProt P02699 1-348, phosphorylated on the C-terminus by endogenous GRK1 (sites not given); all-trans retinal, Schiff base-linked); experiment: pull-down; centrifugal pull-down in 96-well plates; cleared E. coli lysate with arrestin-mCherry (est. 0.1-0.6 uM) mixed with ROS membranes with phosphorylated rhodopsin (1.85 uM), 37 °C 2 min, illuminated (Meta II-P), pelleted at 4 °C; NaCl titrated 50-2500 mM as inhibitor; mCherry fluorescence of the washed pellet; IC50 of NaCl from a four-parameter fit; HEPES pH 7.0; settings: partners not purified
T2 construct: bovine rhodopsin, endogenous in ROS membranes; in isolated, washed ROS disc membranes, not on whole cells; also called Meta II-P

| fold increase in IC50 of NaCl against wild type | Binder |
| --- | --- |
| 1.4 fold | B1 |
| ~1.4 fold | B2 |
| ~1.4 fold | B3 |
